# Assay results taken from PubChem BioAssay (Tox21).
# Several values for one entry are separate records, joined by “and”; a condition that tells them apart may be missing. Equal entries are not always repeated. The inconclusive results got no clear call from the source; some entries with a clear call stand among them for comparison. For part of these data: Where the call is inconclusive, the potency comes from a doubtful curve fit. Activity calls are given as the source filed them. Unless noted, the call rests on the fitted dose curve; in most records, active means well fitted curve in the direction sought with a large enough effect in the repeat runs; inconclusive means weak or mixed curves; inactive means no such curve, though single readings can be large; an effect the other way counts as inactive or inconclusive.
# Experiments:
# [1] = molecular target: Progesterone receptor (Homo sapiens) (UniProt P06401); experiment: qHTS assay to identify small molecule antagonists of the progesterone receptor (PR) signaling pathway (AID 1346795; active means well fitted inhibition curve with a large enough effect in the signal ratio in the repeat runs, not every such curve was filed as active; inconclusive means weak or mixed curves; the % refers to the signal ratio; on activity change, negative = inhibition: on the % scale 0 is the no-effect control and ±100 the full control effect); settings: PR-UAS-bla HEK293T, beta-lactamase FRET ratio, 16 h; activity change, negative = inhibition: at 92.4 µM (top of the series) unless noted
# UniProt P06401, sequence (P06401 whole entry, looked up): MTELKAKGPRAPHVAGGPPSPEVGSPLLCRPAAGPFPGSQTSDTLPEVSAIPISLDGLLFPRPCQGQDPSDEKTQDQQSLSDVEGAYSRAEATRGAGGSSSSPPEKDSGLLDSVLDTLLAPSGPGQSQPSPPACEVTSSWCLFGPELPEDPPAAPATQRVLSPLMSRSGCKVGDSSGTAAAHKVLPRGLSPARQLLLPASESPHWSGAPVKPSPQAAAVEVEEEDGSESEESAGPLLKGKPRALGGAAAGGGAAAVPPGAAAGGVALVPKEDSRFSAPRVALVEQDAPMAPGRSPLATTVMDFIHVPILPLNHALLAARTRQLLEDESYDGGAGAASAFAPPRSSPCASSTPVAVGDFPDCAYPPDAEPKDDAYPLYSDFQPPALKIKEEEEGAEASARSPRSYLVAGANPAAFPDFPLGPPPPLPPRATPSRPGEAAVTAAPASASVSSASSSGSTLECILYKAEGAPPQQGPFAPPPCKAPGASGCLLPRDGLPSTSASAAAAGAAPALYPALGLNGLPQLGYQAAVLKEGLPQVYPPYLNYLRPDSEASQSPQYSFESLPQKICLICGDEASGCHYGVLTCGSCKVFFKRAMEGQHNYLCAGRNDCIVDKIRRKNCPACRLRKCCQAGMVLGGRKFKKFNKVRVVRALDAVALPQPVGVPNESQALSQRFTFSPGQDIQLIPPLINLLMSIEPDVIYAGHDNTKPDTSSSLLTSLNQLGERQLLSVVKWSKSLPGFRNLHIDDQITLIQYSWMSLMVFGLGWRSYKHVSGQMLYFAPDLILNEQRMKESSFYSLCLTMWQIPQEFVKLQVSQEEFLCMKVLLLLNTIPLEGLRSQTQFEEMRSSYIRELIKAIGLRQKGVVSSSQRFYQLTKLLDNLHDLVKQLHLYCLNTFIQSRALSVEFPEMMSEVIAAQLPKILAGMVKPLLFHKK
# Summary of the method: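 Read-out is fluorescence from the LiveBLAzer B/G FRET substrate, cleaved by a UAS-controlled beta-lactamase in PR-UAS-bla HEK293T cells after 16 hr exposure to compound plus 1 nM promegestone (final), followed by 2 hr at room temperature.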
# [2] = qHTS assay to identify small molecule agonists of the progesterone receptor (PR) signaling pathway - cell viability counter screen (AID 1346799; calls by dose curve; further: nearly all actives have a fitted effect of over 45% in size)
# Summary of the method: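 Luminescence from CellTiter-Glo, added after the beta-lactamase FRET read in the same wells, gave cytotoxicity in PR-UAS-bla HEK293T cells treated with compounds for 16 hr at 37C.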
# [3] = Caspase-3/7 induction in CHO-K1 cells by small molecules, qHTS cell viability counter screen (AID 1346979); settings: CellTiter-Fluor fluorescence, 17 h; activity change, negative = cytotoxicity: at 92.4 µM (top of the series); further: nearly all actives have a fitted effect of over 35% in size
# Summary of the method: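 Cells (CHO-K1, wild type) are plated at 1,500 per well and incubated 5hr. Test compounds in DMSO are then pinned in, followed by 16hr at 37C and 5% CO2. Viability is read by CellTiter-Fluor fluorescence after 1hr.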
# [4] = molecular target: Cytochrome P450 2C9 (Homo sapiens) (UniProt P11712); experiment: Cytochrome P450 Family 2 Subfamily C Member 9 (CYP2C9) small molecule antagonists: luciferase reporter qHTS assay (AID 1671198); further: nearly all actives have a fitted effect of over 50% in size
# UniProt P11712, sequence (P11712 whole entry, looked up): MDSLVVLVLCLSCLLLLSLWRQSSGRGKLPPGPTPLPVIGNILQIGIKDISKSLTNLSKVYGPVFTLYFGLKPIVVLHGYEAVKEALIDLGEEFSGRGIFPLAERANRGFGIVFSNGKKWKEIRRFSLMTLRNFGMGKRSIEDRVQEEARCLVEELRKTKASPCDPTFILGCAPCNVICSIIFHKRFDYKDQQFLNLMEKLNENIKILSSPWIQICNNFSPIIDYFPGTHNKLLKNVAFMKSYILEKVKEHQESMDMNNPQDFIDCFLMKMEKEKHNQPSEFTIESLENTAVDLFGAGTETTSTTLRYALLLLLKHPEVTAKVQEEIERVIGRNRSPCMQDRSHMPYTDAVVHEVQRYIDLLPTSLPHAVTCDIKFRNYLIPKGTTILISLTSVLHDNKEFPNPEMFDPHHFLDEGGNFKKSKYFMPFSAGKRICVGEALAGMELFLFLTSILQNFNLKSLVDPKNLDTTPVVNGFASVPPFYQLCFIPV
# Summary of the method: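 P450-Glo proluciferin substrate with CYP2C9 enzyme; 10 min RT preincubation, then NADPH regeneration 1 h at 37C; luciferin detection reagent 20 min RT, luminescence in relative luminescence units.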
# [5] = Caspase-3/7 induction in HepG2 cells by small molecules, qHTS cell viability counter screen (AID 1346981); further: nearly all actives have a fitted effect of over 30% in size
# Summary of the method: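 CellTiter-Fluor fluorescence measured viability in the same wells used for Caspase-Glo 3/7. HepG2 (wild type) at 2,000 cells/well were pre-incubated 5 hr, dosed, and given reagent at 16 hr, with 1 hr further at 37C.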
# [6] = molecular target: Cytochrome P450 2D6 (Homo sapiens) (UniProt P10635); experiment: Cytochrome P450 Family 2 Subfamily D Member 6 (CYP2D6) small molecule antagonists: luciferase reporter qHTS assay (AID 1671196); further: nearly all actives have a fitted effect of over 50% in size
# UniProt P10635, sequence (P10635 whole entry, looked up): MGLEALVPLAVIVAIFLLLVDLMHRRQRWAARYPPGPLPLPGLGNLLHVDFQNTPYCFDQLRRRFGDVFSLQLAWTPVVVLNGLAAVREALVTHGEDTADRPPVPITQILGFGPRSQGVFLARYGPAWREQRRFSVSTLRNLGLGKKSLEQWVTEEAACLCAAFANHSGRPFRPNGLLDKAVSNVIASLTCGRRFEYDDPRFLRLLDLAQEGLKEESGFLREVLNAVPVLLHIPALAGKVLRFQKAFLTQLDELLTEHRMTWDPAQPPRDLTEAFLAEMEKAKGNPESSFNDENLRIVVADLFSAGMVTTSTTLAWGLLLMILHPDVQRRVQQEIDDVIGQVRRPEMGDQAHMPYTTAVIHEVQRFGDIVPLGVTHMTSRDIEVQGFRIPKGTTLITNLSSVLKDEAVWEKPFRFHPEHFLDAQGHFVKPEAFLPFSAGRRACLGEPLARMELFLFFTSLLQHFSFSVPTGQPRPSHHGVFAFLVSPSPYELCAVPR
# Summary of the method: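 CYP2D6 activity was followed as luminescence from its luciferin product after a 1 h NADPH-driven reaction at room temperature. Enzyme-substrate mix and compound were pre-incubated for 10 min, and the signal was read 20 min after adding detection reagent.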
# [7] = Human pregnane X receptor (PXR) small molecule agonists, qHTS cell viability counter screen (AID 1346977); further: nearly all actives have a fitted effect of over 50% in size
# Summary of the method: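 PXR-Luc HepG2, 2,000 cells/well, 5% charcoal-stripped FBS; 5hr settle; cpd 24hr, 37C/5% CO2; CellTiter-Fluor at 23hr, read 1hr later (fluorescence).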
# [8] = molecular target: Nuclear receptor subfamily 1 group I member 2 (Homo sapiens) (UniProt O75469); experiment: Human pregnane X receptor (PXR) small molecule agonists, qHTS assay (AID 1346982); further: nearly all actives have a fitted effect of over 35% in size
# UniProt O75469, sequence (O75469 whole entry, looked up): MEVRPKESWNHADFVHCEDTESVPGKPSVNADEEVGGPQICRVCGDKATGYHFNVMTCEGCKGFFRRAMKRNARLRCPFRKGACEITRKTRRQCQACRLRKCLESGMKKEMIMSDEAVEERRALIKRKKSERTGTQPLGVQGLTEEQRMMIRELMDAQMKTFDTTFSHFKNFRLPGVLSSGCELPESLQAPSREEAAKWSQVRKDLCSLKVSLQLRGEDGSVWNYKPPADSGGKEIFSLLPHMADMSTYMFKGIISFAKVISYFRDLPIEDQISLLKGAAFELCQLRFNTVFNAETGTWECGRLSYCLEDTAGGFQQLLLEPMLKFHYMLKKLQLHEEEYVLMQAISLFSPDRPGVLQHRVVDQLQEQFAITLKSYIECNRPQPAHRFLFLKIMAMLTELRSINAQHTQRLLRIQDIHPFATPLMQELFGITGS
# Summary of the method: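 Agonist mode: luminescence from ONE-Glo after 24 h compound exposure at 37C in HepG2 cells carrying hPXR-responsive CYP3A4 luciferase, plated in charcoal-stripped serum medium 5 h beforehand.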
# Potency means the concentration at half of the fitted maximal effect; tags describe the fitted curve by direction and shape.
Compound,Potency [1],Potency [2],Potency [3],Potency [4],Potency [5],Potency [6],"activity change, negative = inhibition [1]",Potency [7],Potency [8]
CCC(C)(CCC(C)C)C(=O)[O][Sn]([CH3])([CH3])[O]C(=O)C(C)(CC)CCC(C)C (stereo unspecified),inconclusive: 61.1 µM,"inconclusive: 68.6 µM [rising, single point]","inconclusive: 77 µM [cytotoxic, partial curve, poor fit]",active: 25.2 µM,–,–,–,–,–
COc1ccc(C(=O)c2ccc(OC)cc2O)c(O)c1,"inconclusive: 27.5 µM [rising, full curve]",inconclusive: 30.9 µM,"inconclusive: 69.1 µM [cytotoxic, single point]",active: 11.3 µM,"inconclusive: 61.6 µM [cytotoxic, partial curve, poor fit]","inconclusive: 25.4 µM [inhibitor, partial curve]",–,–,–
C=CC(C)(C)CC(=O)OC,–,"inconclusive: 4.87 µM [cytotoxic, full curve]",–,–,"inconclusive: 77.2 µM [cytotoxic, partial curve, poor fit]",–,inconclusive: -20.4%,"inconclusive: 68.8 µM [cytotoxic, single point]",active: 68.8 µM
CC(C)(CO)COC(=O)C(C)(C)CO,inactive,"inconclusive: 0.969 µM [rising, full curve, poor fit]",–,"inconclusive: 63.3 µM [inhibitor, partial curve] and inconclusive: 63.3 µM [inhibitor, partial curve, poor fit]","inconclusive: 27.3 µM [rising, partial curve]","inconclusive: 35.6 µM [inhibitor, partial curve]",–,–,inactive
